Test results reported in the CheMixHub viscosity set.
Further values from the same series stand in other lists.

Assay: xn = mol fraction of the nth substance listed
Details: 101 kPa

CN(C)CCCN + O
viscosity [mPa·s]
Details	303.15 K	308.15 K	313.15 K	318.15 K	323.15 K
x1 = 0.0488	–	2.023	1.741	1.52	1.336
x1 = 0.0999	–	4.07	3.359	2.816	2.393
x1 = 0.147	–	5.721	4.635	3.821	3.206
x1 = 0.1743	–	6.315	5.089	4.176	3.485
x1 = 0.1999	–	6.616	5.316	4.362	3.618
x1 = 0.2247	–	6.643	5.356	4.387	3.635
x1 = 0.2497	–	6.499	5.248	4.301	3.572
x1 = 0.2744	–	6.216	5.023	4.132	3.444
x1 = 0.2998	–	5.812	4.723	3.904	3.265
x1 = 0.3238	6.728	5.416	4.423	3.672	3.081
x1 = 0.3744	5.564	4.54	3.757	3.155	2.673
x1 = 0.3988	5.044	4.143	3.448	2.905	2.475
x1 = 0.4365	4.326	3.586	3.013	2.566	2.205
